{"source": "PubChem BioAssay AID686979", "about": "(National Center for Advancing Translational Sciences (NCATS), 2013)", "note": "The whole screen tested about 420,000 compounds, of which about 50,000 (12%) were called active. Inconclusive means that the source gave no clear call. Such entries were picked first, then a sample of the others. Calls come from the whole dose curve; as a rule, active = well fitted inhibition curve with a large enough effect; inconclusive = small, poorly fitted or top-dose-only effect; inactive = flat fitted curve, though single readings scatter. No potency is given beside an inconclusive call; the fits are too rough. % is set by controls: 0 for no effect and ±100 for the full control effect; potency is the fitted concentration of half-maximal effect; tags give direction and shape of the fitted curve."}
{"experiment": "qHTS for Inhibitors of human tyrosyl-DNA phosphodiesterase 1 (TDP1): qHTS in cells in presence of CPT; note: nearly all actives have a fitted effect of over 55% in size", "settings": "chicken DT40 Tdp1-/-;hTDP1 cells + 20 nM CPT, ATP luminescence, 48 h; activity change, negative = growth inhibition: at 46.2 µM (top of the series)", "method_in_brief": "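Cell growth measured by CellTiter-Glo luminescence after a minimum 48 h, 37 C compound exposure with 20 nM CPT in Tdp1-knockout DT40 cells stably expressing hTDP1, seeded 400/well; qHTS titration format.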"}
{"smiles": "CC(=O)NCCNc1nc(-c2cccc(NS(C)(=O)=O)c2)nc2ccccc12", "activity change, negative = growth inhibition": "inconclusive: -30.1% [inhibitor]"}
{"smiles": "CC(OC(=O)C1CC1)C(=O)Nc1ncc(Cl)cc1Cl", "note": "(stereo not given)", "Potency": "inactive"}
{"smiles": "Cc1csc(NC(=O)CSc2nnc(-c3ccoc3C)n2C(C)c2ccccc2)n1", "note": "(stereo not given)", "Potency": "inconclusive [inhibitor, single point]"}
{"smiles": "CCCN(CC(=O)Nc1ccccc1C)C(=O)c1ccc(S(=O)(=O)N2CCC(C)CC2)cc1", "Potency": "inactive"}
{"smiles": "COc1ccc(CNCCSc2nnnn2-c2ccccc2)cc1", "Potency": "inconclusive [inhibitor, single point]"}
{"smiles": "COc1ccc(-c2c(C)nn3c(C)cc(C)nc23)cc1", "Potency": "inconclusive [inhibitor, single point]"}
{"smiles": "CC1(C)CC(=O)c2c(S(C)(=O)=O)sc(Br)c2C1", "Potency": "inconclusive [inhibitor, single point]"}
{"smiles": "O=C(c1ccc(Cl)c(S(=O)(=O)NCc2ccccc2)c1)N1CCN(c2ccccn2)CC1", "Potency": "inconclusive [inhibitor, single point]"}
{"smiles": "OCCSc1nc(-c2cccnc2)nc2ccccc12", "Potency": "inconclusive [inhibitor, single point]"}
{"smiles": "COc1ccccc1-n1cc(-c2ccc(C)cc2)nc1S(=O)(=O)CC(=O)Nc1ccccc1C(F)(F)F", "Potency": "inconclusive [inhibitor, single point]"}
{"smiles": "CCOc1ccc(NC(=O)CN2CCCC2c2cccs2)cc1S(=O)(=O)N1CCCCC1", "note": "(stereo not given)", "Potency": "active: 14.6 µM"}
{"smiles": "CC(C)C[C@H](N)c1cn([C@@H](Cc2ccc(O)cc2)C(=O)N2CCNCC2)nn1", "Potency": "inactive"}
{"smiles": "COc1ccc(CCNC(=O)c2ccc3c(c2)N(Cc2cccc(C)c2)C(=O)c2ccccc2S3(=O)=O)cc1OC", "Potency": "active: 8.2 µM"}
{"smiles": "CCOc1ccc(CCN2C(=S)N([C@@H](CC(C)C)CN3CCCC3CN3C(=S)NC[C@@H]3CC(C)C)C[C@@H]2Cc2ccccc2)cc1", "note": "(stereo not given in full)", "Potency": "active: 16.4 µM"}
{"smiles": "Cc1oc(-c2ccc3c(c2)OCCO3)cc1C(=O)NCC(=O)O", "Potency": "inactive"}
{"smiles": "Cc1ccc(NC(=O)C2CCCN(C(=O)c3ccc(Cl)cc3)C2)c(C)c1", "note": "(stereo not given)", "Potency": "inactive"}
{"smiles": "CN1CCN(c2ccc(-c3cc(NC=O)c4ncc(-c5ccc(F)c(Cl)c5)n4c3)cc2)CC1", "Potency": "active: 11.6 µM"}
{"smiles": "COc1cc2oc(-c3ccc(O)cc3)cc(=O)c2c(OC)c1O", "Potency": "inconclusive [inhibitor, single point]"}
{"smiles": "COc1ccc2oc(C(=O)OC(C)C(=O)NC3(C#N)CCCCC3)c(C)c2c1", "note": "(stereo not given)", "Potency": "inconclusive [inhibitor, single point]"}
{"smiles": "COc1cc(OC)c(NC(c2nnc(-c3ccccc3)o2)c2ccc(F)cc2Cl)cc1Cl", "note": "(stereo not given)", "Potency": "inconclusive [inhibitor, single point]"}
{"smiles": "COc1ccccc1Nc1nc(-c2cccnc2)cs1", "Potency": "inconclusive [inhibitor, partial curve, poor fit]"}
{"smiles": "CSc1nc(N2CCN(C)CC2)c2c(c1C#N)CC(C)(C)OC2", "Potency": "inactive"}
{"smiles": "COc1ccc(N=C/C=C2/C=C(c3ccccc3)OC(C)(C)O2)cc1", "Potency": "inactive"}
{"smiles": "Cc1ccc(Nc2c3c(nc4nncn24)CCC3)cc1", "Potency": "inactive"}
{"smiles": "CC1S/C(=N/N=C/c2cccc([N+](=O)[O-])c2)NC1=O", "note": "(stereo not given)", "Potency": "inconclusive [inhibitor, single point]"}
{"smiles": "COc1ccccc1Nc1c2c(nc3ccc(NC(=O)/C=C/c4cccc(OC)c4OC)cc13)CCCC2", "Potency": "active: 3.26 µM"}
{"smiles": "O=C(NCCc1ccccc1)C1CCC(CNc2c(N3CCCCC3)c(=O)c2=O)CC1", "note": "(stereo not given)", "Potency": "inconclusive [inhibitor, single point]"}
{"smiles": "CCN(Cc1ccccc1)C(c1ccc(C)cc1)c1nnnn1C(C)(C)C", "note": "(stereo not given)", "Potency": "inconclusive [inhibitor, single point]"}
{"smiles": "COc1cccc(C(=O)Nc2cccc(OCC(=O)c3ccccc3)c2)c1", "Potency": "active: 23.1 µM"}
{"smiles": "CCN(CC)C(=O)c1ccc(COc2ccccc2Br)o1", "Potency": "inconclusive [inhibitor, partial curve]"}
{"smiles": "CN(C)S(=O)(=O)c1ccc(S(=O)(=O)N2CCCC(C(=O)NC3CCCC3)C2)cc1", "note": "(stereo not given)", "Potency": "inconclusive [inhibitor, full curve]"}
{"smiles": "O=C(CCCN1CC=C(n2c(=O)[nH]c3ccccc32)CC1)c1ccc(F)cc1", "Potency": "inconclusive [inhibitor, single point]"}
{"smiles": "CCn1cc(S(=O)(=O)c2cc(C)cc(C)c2)c(=O)c2cc(F)c(N3CCOCC3)cc21", "Potency": "inconclusive [inhibitor, single point]"}
{"smiles": "CCOc1ccccc1-c1nc(-c2ccc(-c3ccccc3)nc2OCC)no1", "Potency": "inconclusive [inhibitor, single point]"}
{"smiles": "COc1ccccc1NC(=O)CSc1nnc(-c2cccc(Cl)c2)o1", "Potency": "inactive"}
{"smiles": "NS(=O)(=O)c1ccc(NC2=CC(c3ccc(F)cc3)N(c3ccc(S(N)(=O)=O)cc3)C2=O)cc1", "note": "(stereo not given)", "Potency": "inactive"}
{"smiles": "CN(Cc1ccccc1)C(=O)c1ccc(NC(=O)Cc2ccc(NC(=O)C3CCN(C(=O)C4CCCCC4)CC3)cc2)cc1", "Potency": "active: 23.1 µM"}
{"smiles": "Cc1cc(C)cc(-n2cnc3cc(C(=O)NCCc4ccccc4)ccc32)c1", "Potency": "inconclusive [inhibitor, single point]"}
{"smiles": "COc1ccc(NC(=O)CSc2nnnn2C2CCCC2)cc1S(=O)(=O)N1CCOCC1", "Potency": "inactive"}
{"smiles": "COc1ccc(NC(=O)C2Cc3c(-c4ccc(Cl)cc4)ccnc3O2)cc1OC", "note": "(stereo not given)", "Potency": "inconclusive [inhibitor, single point]"}
{"smiles": "O=S(=O)(NCc1ccco1)c1cnc(Cl)c(Br)c1", "Potency": "inactive"}
{"smiles": "O=C(NCc1ccccc1Cl)c1csc([C@@H]2C[C@H](O)[C@@H](CO)O2)n1", "Potency": "inactive"}
{"smiles": "CCOC(=O)C1CCN(C(=O)c2oc3ccc(S(=O)(=O)N4CCCCCC4)cc3c2C)CC1", "Potency": "inconclusive [inhibitor, single point]"}
{"smiles": "COc1ccc(OCC(=O)Nc2nc3c(s2)CCCC3)cc1", "Potency": "inconclusive [inhibitor, single point]"}
{"smiles": "Cc1onc(-c2ccccc2Cl)c1C(=O)OCC(=O)c1c(N)n(C)c(=O)n(C)c1=O", "Potency": "active: 7.31 µM"}
